The subject of one assay is HSkMC. In words: cytotoxicity call (relative viability < 0.9). Conditions: 10 µM.
In the next assay the test system is HepG2. In words: cytotoxicity call (relative viability < 0.9). Conditions: 10 µM.
In the next assay the test system is S. aureus RN4220. Description: growth inhibition call (relative growth <= 0.2). Conditions: 50 µM.

Experimental findings from the antibiotic and cytotoxicity screens of Wong et al. (2023) are described below.

This is one part of the list.

Regarding `COc1cc2ncnc(Nc3ccc(F)c(Cl)c3)c2cc1OCCCN1CCOCC1`, in the assay on HSkMC, the cytotoxicity call was “inactive”. The cytotoxicity call in the assay on HepG2 was “active”. Also, in the assay on S. aureus RN4220, the growth inhibition call is “inactive”.
Turning to `Cc1ccc(S(=O)(=O)Nc2ccc3c(c2)C(=O)N([C@H](C)CO)C[C@@H](C)[C@H](CN(C)S(=O)(=O)c2ccc(C)cc2)OCCCC[C@@H](C)O3)cc1`, the cytotoxicity call in the assay on HSkMC and with HepG2 was “inactive” throughout. The growth inhibition call with S. aureus RN4220 was “inactive”.
Turning to `C[C@@H]1CCCCO[C@H](CN(C)S(C)(=O)=O)[C@@H](C)CN([C@H](C)CO)C(=O)c2cc(NS(=O)(=O)c3cn(C)cn3)ccc2O1`, the cytotoxicity call with HSkMC and in the assay with HepG2 was “inactive” each time. Further, in the assay on S. aureus RN4220, the growth inhibition call was “inactive”.
Turning to `COc1ccc(S(=O)(=O)N(C)C[C@H]2Oc3ccc(NS(=O)(=O)c4ccc(F)cc4)cc3C(=O)N([C@@H](C)CO)C[C@H]2C)cc1`, the cytotoxicity call in the assay with HSkMC and with HepG2 was “inactive” in each case. Also, in the assay with S. aureus RN4220, the growth inhibition call was “inactive”.
With `COCC#Cc1ccc2c(c1)O[C@@H](CN(C)C(=O)C1CCOCC1)[C@H](C)CN([C@@H](C)CO)S2(=O)=O`, the cytotoxicity call with HSkMC and in the assay with HepG2 was “inactive” throughout. In the assay with S. aureus RN4220, the growth inhibition call is “inactive”.
Consider `CC(C)NC(=O)N(C)C[C@@H]1Oc2ccc(NC(=O)Cn3cnnn3)cc2C(=O)N([C@@H](C)CO)C[C@@H]1C`, for which the cytotoxicity call with HSkMC and in the assay with HepG2 was “inactive” throughout. Also, the growth inhibition call in the assay with S. aureus RN4220 was “inactive”.
On to `CC(=O)Nc1ccc(OC(=O)c2ccccc2O)cc1`, for which the cytotoxicity call with HSkMC and in the assay with HepG2 was “inactive” each time. Moreover, the growth inhibition call in the assay on S. aureus RN4220 was “inactive”.
Consider `C=CCN(Cc1ccccc1)C(=O)[C@@H]1N(c2cccc(Cl)c2CO)C(=O)[C@H]2[C@H](C(=O)OCC)[C@@H]3C=C[C@]12O3`, for which the cytotoxicity call in the assay on HSkMC (human skeletal muscle cells) and in the assay with HepG2 was “inactive” in each case. For the same molecule, in the assay with S. aureus RN4220, the growth inhibition call is “inactive”.
Consider `Cc1nc2ccccn2c(=O)c1CCN1CCC(C(=O)c2ccc(F)cc2)CC1`, for which the cytotoxicity call in the assay with HSkMC and with HepG2 was “inactive” each time. Moreover, the growth inhibition call with S. aureus RN4220 was “inactive”.
As for `COc1ccc(S(=O)(=O)N(C)C[C@H]2OCCCC[C@@H](C)Oc3ccc(NC(=O)Nc4ccc(C(F)(F)F)cc4)cc3C(=O)N([C@H](C)CO)C[C@H]2C)cc1`, the cytotoxicity call with HSkMC is “inactive”. Further, the cytotoxicity call in the assay on HepG2 is “active”. Besides, the growth inhibition call in the assay on S. aureus RN4220 was “inactive”.
